Reference: the supplement of paper PMC8728848
This is one part of the list.

Tests used:
Experiment in all cases: glycan array binding signal (z-score within array); higher = stronger binding
Conditions in all cases: glycan notation: IUPAC condensed, linker removed
[1] = biological target: Gal(b1-3)GalNAc(b1-3)Gal(a1-4)Gal(b1-4)Glc
Method in brief: (§1)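 Glycan array data came from 3228 arrays in the Consortium for Functional Glycomics database, and only arrays with an available protein sequence were kept. Glycan names were put into IUPAC-condensed notation, and columns mapping to the same glycan were averaged. The binding signal is a within-array Z-score, averaged across arrays of one protein sequence run at different concentrations or buffers and across linkers. A negative Z-score can be read as non-binding.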

[2] = biological target: Gal(b1-3)GalNAc(b1-4)Gal(b1-4)Glc
Method in brief: as §1

[3] = biological target: Gal(b1-3)GalNAc(b1-4)[Neu5Ac(a2-3)]Gal(b1-4)Glc
Method in brief: as §1

Gal(b1-3)GlcNAc = biological target: Gal(b1-3)GlcNAc
Method in brief: as §1

[4] = biological target: Gal(b1-3)GlcNAc(a1-3)Gal(b1-4)GlcNAc
Method in brief: as §1

[5] = biological target: Gal(b1-3)GlcNAc(a1-6)Gal(b1-4)GlcNAc
Method in brief: as §1

Gal(b1-3)GlcNAc(b1-2)Man = biological target: Gal(b1-3)GlcNAc(b1-2)Man
Method in brief: as §1

[6] = biological target: Gal(b1-3)GlcNAc(b1-2)Man(a1-3)[Gal(b1-3)GlcNAc(b1-2)Man(a1-6)]Man(b1-4)GlcNAc(b1-4)GlcNAc
Method in brief: as §1

[7] = biological target: Gal(b1-3)GlcNAc(b1-2)Man(a1-3)[Gal(b1-3)GlcNAc(b1-2)Man(a1-6)]Man(b1-4)GlcNAc(b1-4)[Fuc(a1-6)]GlcNAc
Method in brief: as §1

[8] = biological target: Gal(b1-3)GlcNAc(b1-2)Man(a1-3)[GlcNAc(b1-4)][Gal(b1-3)GlcNAc(b1-2)Man(a1-6)]Man(b1-4)GlcNAc(b1-4)GlcNAc
Method in brief: as §1

[9] = biological target: Gal(b1-3)GlcNAc(b1-2)[Gal(b1-3)GlcNAc(b1-6)]Man(a1-6)[Gal(b1-3)GlcNAc(b1-2)Man(a1-3)]Man(b1-4)GlcNAc(b1-4)GlcNAc
Method in brief: as §1

[10] = biological target: Gal(b1-3)GlcNAc(b1-3)Gal(b1-3)GlcNAc
Method in brief: as §1

[11] = biological target: Gal(b1-3)GlcNAc(b1-3)Gal(b1-4)Glc
Method in brief: as §1

[12] = biological target: Gal(b1-3)GlcNAc(b1-3)Gal(b1-4)GlcNAc
Method in brief: as §1

[13] = biological target: Gal(b1-3)GlcNAc(b1-3)Gal(b1-4)GlcNAc(b1-2)Man(a1-3)[Gal(b1-3)GlcNAc(b1-3)Gal(b1-4)GlcNAc(b1-2)Man(a1-6)]Man(b1-4)GlcNAc(b1-4)GlcNAc
Method in brief: as §1

[14] = biological target: Gal(b1-3)GlcNAc(b1-3)Gal(b1-4)GlcNAc(b1-2)[Gal(b1-3)GlcNAc(b1-3)Gal(b1-4)GlcNAc(b1-6)]Man(a1-6)[Gal(b1-3)GlcNAc(b1-3)Gal(b1-4)GlcNAc(b1-2)Man(a1-3)]Man(b1-4)GlcNAc(b1-4)[Fuc(a1-6)]GlcNAc
Method in brief: as §1

[15] = biological target: Gal(b1-3)GlcNAc(b1-3)Gal(b1-4)GlcNAc(b1-3)Gal(b1-4)GlcNAc(b1-2)[Gal(b1-3)GlcNAc(b1-3)Gal(b1-4)GlcNAc(b1-3)Gal(b1-4)GlcNAc(b1-6)]Man(a1-6)[Gal(b1-3)GlcNAc(b1-3)Gal(b1-4)GlcNAc(b1-3)Gal(b1-4)GlcNAc(b1-2)Man(a1-3)]Man(b1-4)GlcNAc(b1-4)[Fuc(a1-6)]GlcNAc
Method in brief: as §1

[16] = biological target: Gal(b1-3)GlcNAc(b1-3)Gal(b1-4)GlcNAc(b1-6)[Gal(b1-3)GlcNAc(b1-3)]Gal(b1-4)Glc
Method in brief: as §1

[17] = biological target: Gal(b1-3)GlcNAc(b1-3)Gal(b1-4)[Fuc(a1-3)]GlcNAc
Method in brief: as §1

[18] = biological target: Gal(b1-3)GlcNAc(b1-3)Gal(b1-4)[Fuc(a1-3)]GlcNAc(b1-6)[Gal(b1-3)GlcNAc(b1-3)]Gal(b1-4)Glc
Method in brief: as §1

[19] = biological target: Gal(b1-3)GlcNAc(b1-3)GalNAc
Method in brief: as §1

[20] = biological target: Gal(b1-3)GlcNAc(b1-6)Gal(b1-4)GlcNAc
Method in brief: as §1

[21] = biological target: Gal(b1-3)GlcNAc(b1-6)GalNAc
Method in brief: as §1

[22] = biological target: Gal(b1-3)GlcNAc(b1-6)[Gal(b1-3)]GalNAc
Method in brief: as §1

Gal(b1-3)GlcNAc6S = biological target: Gal(b1-3)GlcNAc6S
Method in brief: as §1

[23] = biological target: Gal(b1-3)[Fuc(a1-4)]GlcNAc
Method in brief: as §1

[24] = biological target: Gal(b1-3)[Fuc(a1-4)]GlcNAc(b1-2)Man
Method in brief: as §1

[25] = biological target: Gal(b1-3)[Fuc(a1-4)]GlcNAc(b1-2)Man(a1-3)[Gal(b1-3)[Fuc(a1-4)]GlcNAc(b1-2)Man(a1-6)]Man(b1-4)GlcNAc(b1-4)GlcNAc
Method in brief: as §1

[26] = biological target: Gal(b1-3)[Fuc(a1-4)]GlcNAc(b1-2)Man(a1-3)[Gal(b1-3)[Fuc(a1-4)]GlcNAc(b1-2)Man(a1-6)]Man(b1-4)GlcNAc(b1-4)[Fuc(a1-6)]GlcNAc
Method in brief: as §1

[27] = biological target: Gal(b1-3)[Fuc(a1-4)]GlcNAc(b1-3)Gal(b1-3)[Fuc(a1-4)]GlcNAc
Method in brief: as §1

[28] = biological target: Gal(b1-3)[Fuc(a1-4)]GlcNAc(b1-3)Gal(b1-4)GlcNAc
Method in brief: as §1

[29] = biological target: Gal(b1-3)[Fuc(a1-4)]GlcNAc(b1-3)Gal(b1-4)[Fuc(a1-3)]GlcNAc
Method in brief: as §1

[30] = biological target: Gal(b1-3)[Fuc(a1-4)]GlcNAc(b1-6)GalNAc
Method in brief: as §1

[31] = biological target: Gal(b1-3)[GlcNAc(b1-6)]GalNAc
Method in brief: as §1

[32] = biological target: Gal(b1-3)[Neu5Ac(a2-6)]GalNAc
Method in brief: as §1

[33] = biological target: Gal(b1-3)[Neu5Ac(a2-6)]GlcNAc(b1-4)Gal(b1-4)Glc
Method in brief: as §1

[34] = biological target: Gal(b1-3)[Neu5Ac(a2-6)]GlcNAc(b1-6)Gal(b1-4)Glc
Method in brief: as §1

[35] = biological target: Gal(b1-3)[Neu5Ac(b2-6)]GalNAc
Method in brief: as §1

Gal(b1-4)Gal = biological target: Gal(b1-4)Gal
Method in brief: as §1

[36] = biological target: Gal(b1-4)GalNAc(a1-3)[Fuc(a1-2)]Gal(b1-4)GlcNAc
Method in brief: as §1

[37] = biological target: Gal(b1-4)GalNAc(b1-3)[Fuc(a1-2)]Gal(b1-4)GlcNAc
Method in brief: as §1

Gal(b1-4)Glc = biological target: Gal(b1-4)Glc
Method in brief: as §1

Gal(b1-4)Glc6S = biological target: Gal(b1-4)Glc6S
Method in brief: as §1

Gal(b1-4)GlcNAc = biological target: Gal(b1-4)GlcNAc
Method in brief: as §1

[38] = biological target: Gal(b1-4)GlcNAc(a1-6)Gal(b1-4)GlcNAc
Method in brief: as §1

B1: rCNL (Clitocybe nebularis), B2ZRS9 (protein)
chain: SITPGTYNITNVAYTNRLIDLTGSNPAENTLIIGHHLNKTPSGYGNQQWTLVQLPHTTIYTMQAVNPQSYVRVRDDNLVDGAALVGSQQPTPVSIESAGNSGQFRIKIPNLGLALTLPSDANSTPIVLGEVDETSTNQLWAFESVSAV
Question: With B1 as the binder, how does the “glycan array binding signal (z-score)” value [1] read?
Answer: -0.292

Question: What about the “glycan array binding signal (z-score)” value [2] of the same binder?
Answer: -0.287

Question: And the “glycan array binding signal (z-score)” value [3]?
Answer: -0.297

Question: And the “glycan array binding signal (z-score)” value (Gal(b1-3)GlcNAc)?
Answer: -0.29

Question: And the “glycan array binding signal (z-score)” value [4]?
Answer: -0.21

Question: What about the “glycan array binding signal (z-score)” value [5] of the same binder?
Answer: -0.268

Question: And the “glycan array binding signal (z-score)” value (Gal(b1-3)GlcNAc(b1-2)Man)?
Answer: -0.202

Question: What about the “glycan array binding signal (z-score)” value [6] of the same binder?
Answer: -0.059

Question: What about the “glycan array binding signal (z-score)” value [7] of the same binder?
Answer: -0.145

Question: What about the “glycan array binding signal (z-score)” value [8] of the same binder?
Answer: -0.194

Question: What about the “glycan array binding signal (z-score)” value [9] of the same binder?
Answer: -0.191

Question: What about the “glycan array binding signal (z-score)” value [10] of the same binder?
Answer: -0.054

Question: And the “glycan array binding signal (z-score)” value [11]?
Answer: -0.065

Question: And the “glycan array binding signal (z-score)” value [12]?
Answer: 0.002

Question: What about the “glycan array binding signal (z-score)” value [13] of the same binder?
Answer: -0.218

Question: What about the “glycan array binding signal (z-score)” value [14] of the same binder?
Answer: -0.195

Question: And the “glycan array binding signal (z-score)” value [15]?
Answer: -0.203

Question: And the “glycan array binding signal (z-score)” value [16]?
Answer: -0.019

Question: And the “glycan array binding signal (z-score)” value [17]?
Answer: -0.216

Question: And the “glycan array binding signal (z-score)” value [18]?
Answer: -0.102

Question: And the “glycan array binding signal (z-score)” value [19]?
Answer: -0.295

Question: And the “glycan array binding signal (z-score)” value [20]?
Answer: -0.241

Question: What about the “glycan array binding signal (z-score)” value [21] of the same binder?
Answer: -0.203

Question: And the “glycan array binding signal (z-score)” value [22]?
Answer: -0.215

Question: And the “glycan array binding signal (z-score)” value (Gal(b1-3)GlcNAc6S)?
Answer: -0.226

Question: And the “glycan array binding signal (z-score)” value [23]?
Answer: -0.303

Question: And the “glycan array binding signal (z-score)” value [24]?
Answer: -0.187

Question: And the “glycan array binding signal (z-score)” value [25]?
Answer: -0.322

Question: And the “glycan array binding signal (z-score)” value [26]?
Answer: -0.262

Question: What about the “glycan array binding signal (z-score)” value [27] of the same binder?
Answer: -0.306

Question: And the “glycan array binding signal (z-score)” value [28]?
Answer: -0.278

Question: What about the “glycan array binding signal (z-score)” value [29] of the same binder?
Answer: -0.31

Question: And the “glycan array binding signal (z-score)” value [30]?
Answer: -0.22

Question: What about the “glycan array binding signal (z-score)” value [31] of the same binder?
Answer: 0.203

Question: What about the “glycan array binding signal (z-score)” value [32] of the same binder?
Answer: -0.019

Question: What about the “glycan array binding signal (z-score)” value [33] of the same binder?
Answer: -0.226

Question: And the “glycan array binding signal (z-score)” value [34]?
Answer: -0.252

Question: What about the “glycan array binding signal (z-score)” value [35] of the same binder?
Answer: -0.305

Question: What about the “glycan array binding signal (z-score)” value (Gal(b1-4)Gal) of the same binder?
Answer: -0.215

Question: What about the “glycan array binding signal (z-score)” value [36] of the same binder?
Answer: 1.04

Question: And the “glycan array binding signal (z-score)” value [37]?
Answer: 0.228

Question: What about the “glycan array binding signal (z-score)” value (Gal(b1-4)Glc) of the same binder?
Answer: -0.28

Question: What about the “glycan array binding signal (z-score)” value (Gal(b1-4)Glc6S) of the same binder?
Answer: -0.306

Question: What about the “glycan array binding signal (z-score)” value (Gal(b1-4)GlcNAc) of the same binder?
Answer: -0.261

Question: What about the “glycan array binding signal (z-score)” value [38] of the same binder?
Answer: -0.288
